Here are results for 31 molecules from article PMC9911399, “Two distinct binding modes provide the RNA-binding protein RbFox with extraordinary sequence specificity”.

Numbering of substitutions follows the chain as printed; changes in the protein carry UniProt numbers. The list shows a part of the results.

T1: RBFOX1 RRM RbFoxmut (Fox-RRM*) (Homo sapiens, UniProt Q9NWB1 109-208, R118D;E147R;N151S;E152T)
T1 sequence: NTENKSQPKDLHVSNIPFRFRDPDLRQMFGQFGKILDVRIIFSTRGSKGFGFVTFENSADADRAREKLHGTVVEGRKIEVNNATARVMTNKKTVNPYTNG

B1: GCAUACG (DNA:RNA)
RNA: GGGAGACCGGAAUUCAGAUUGUCCGCAUACGUUAAAUCCCGUCGUAGCCACCA
DNA 1: CAATCTGAATTCCGGTCTCCC
DNA 2: TGGTGGCTACGACGGGATT
B2: GUCUAGA (DNA:RNA)
RNA: B1 RNA with C26U, A27C, C30G, G31A
DNA 1: CAATCTGAATTCCGGTCTCCC
DNA 2: TGGTGGCTACGACGGGATT
B3: GGGUGCU (DNA:RNA)
RNA: B1 RNA with C26G, A27G, A29G, G31U
DNA 1: CAATCTGAATTCCGGTCTCCC
DNA 2: TGGTGGCTACGACGGGATT
B4: CUAGCCC (DNA:RNA)
RNA: B1 RNA with G25C, C26U, U28G, A29C, G31C
DNA 1: CAATCTGAATTCCGGTCTCCC
DNA 2: TGGTGGCTACGACGGGATT
B5: AACAUAG (DNA:RNA)
RNA: B1 RNA with G25A, C26A, A27C, U28A, A29U, C30A
DNA 1: CAATCTGAATTCCGGTCTCCC
DNA 2: TGGTGGCTACGACGGGATT
B6: ACAUCUU (DNA:RNA)
RNA: B1 RNA with G25A, A29C, C30U, G31U
DNA 1: CAATCTGAATTCCGGTCTCCC
DNA 2: TGGTGGCTACGACGGGATT
B7: UCGGCAA (DNA:RNA)
RNA: B1 RNA with G25U, A27G, U28G, A29C, C30A, G31A
DNA 1: CAATCTGAATTCCGGTCTCCC
DNA 2: TGGTGGCTACGACGGGATT
B8: GCUUAAC (DNA:RNA)
RNA: B1 RNA with A27U, C30A, G31C
DNA 1: CAATCTGAATTCCGGTCTCCC
DNA 2: TGGTGGCTACGACGGGATT
B9: CCAUAUU (DNA:RNA)
RNA: B1 RNA with G25C, C30U, G31U
DNA 1: CAATCTGAATTCCGGTCTCCC
DNA 2: TGGTGGCTACGACGGGATT
B10: UACUGAG (DNA:RNA)
RNA: B1 RNA with G25U, C26A, A27C, A29G, C30A
DNA 1: CAATCTGAATTCCGGTCTCCC
DNA 2: TGGTGGCTACGACGGGATT
B11: CCUAUAA (DNA:RNA)
RNA: B1 RNA with G25C, A27U, U28A, A29U, C30A, G31A
DNA 1: CAATCTGAATTCCGGTCTCCC
DNA 2: TGGTGGCTACGACGGGATT
B12: CUGGCAG (DNA:RNA)
RNA: B1 RNA with G25C, C26U, A27G, U28G, A29C, C30A
DNA 1: CAATCTGAATTCCGGTCTCCC
DNA 2: TGGTGGCTACGACGGGATT
B13: CCUCCCG (DNA:RNA)
RNA: B1 RNA with G25C, A27U, U28C, A29C
DNA 1: CAATCTGAATTCCGGTCTCCC
DNA 2: TGGTGGCTACGACGGGATT
B14: CGGGUCA (DNA:RNA)
RNA: B1 RNA with G25C, C26G, A27G, U28G, A29U, G31A
DNA 1: CAATCTGAATTCCGGTCTCCC
DNA 2: TGGTGGCTACGACGGGATT
B15: GUGCGUA (DNA:RNA)
RNA: B1 RNA with C26U, A27G, U28C, A29G, C30U, G31A
DNA 1: CAATCTGAATTCCGGTCTCCC
DNA 2: TGGTGGCTACGACGGGATT
B16: GAGCGCA (DNA:RNA)
RNA: B1 RNA with C26A, A27G, U28C, A29G, G31A
DNA 1: CAATCTGAATTCCGGTCTCCC
DNA 2: TGGTGGCTACGACGGGATT
B17: UUACGGA (DNA:RNA)
RNA: B1 RNA with G25U, C26U, U28C, A29G, C30G, G31A
DNA 1: CAATCTGAATTCCGGTCTCCC
DNA 2: TGGTGGCTACGACGGGATT
B18: AUUACGG (DNA:RNA)
RNA: B1 RNA with G25A, C26U, A27U, U28A, A29C, C30G
DNA 1: CAATCTGAATTCCGGTCTCCC
DNA 2: TGGTGGCTACGACGGGATT
B19: CAUGCCC (DNA:RNA)
RNA: B1 RNA with G25C, C26A, A27U, U28G, A29C, G31C
DNA 1: CAATCTGAATTCCGGTCTCCC
DNA 2: TGGTGGCTACGACGGGATT
B20: CGAAGAU (DNA:RNA)
RNA: B1 RNA with G25C, C26G, U28A, A29G, C30A, G31U
DNA 1: CAATCTGAATTCCGGTCTCCC
DNA 2: TGGTGGCTACGACGGGATT
B21: GAGCUCC (DNA:RNA)
RNA: B1 RNA with C26A, A27G, U28C, A29U, G31C
DNA 1: CAATCTGAATTCCGGTCTCCC
DNA 2: TGGTGGCTACGACGGGATT
B22: AGCUCAC (DNA:RNA)
RNA: B1 RNA with G25A, C26G, A27C, A29C, C30A, G31C
DNA 1: CAATCTGAATTCCGGTCTCCC
DNA 2: TGGTGGCTACGACGGGATT
B23: CGACGAG (DNA:RNA)
RNA: B1 RNA with G25C, C26G, U28C, A29G, C30A
DNA 1: CAATCTGAATTCCGGTCTCCC
DNA 2: TGGTGGCTACGACGGGATT
B24: CUACCUG (DNA:RNA)
RNA: B1 RNA with G25C, C26U, U28C, A29C, C30U
DNA 1: CAATCTGAATTCCGGTCTCCC
DNA 2: TGGTGGCTACGACGGGATT
B25: UCUCCCG (DNA:RNA)
RNA: B1 RNA with G25U, A27U, U28C, A29C
DNA 1: CAATCTGAATTCCGGTCTCCC
DNA 2: TGGTGGCTACGACGGGATT
B26: UCAUGCU (DNA:RNA)
RNA: B1 RNA with G25U, A29G, G31U
DNA 1: CAATCTGAATTCCGGTCTCCC
DNA 2: TGGTGGCTACGACGGGATT
B27: GUAGGCG (DNA:RNA)
RNA: B1 RNA with C26U, U28G, A29G
DNA 1: CAATCTGAATTCCGGTCTCCC
DNA 2: TGGTGGCTACGACGGGATT
B28: CCUUCGU (DNA:RNA)
RNA: B1 RNA with G25C, A27U, A29C, C30G, G31U
DNA 1: CAATCTGAATTCCGGTCTCCC
DNA 2: TGGTGGCTACGACGGGATT
B29: UUCCGGG (DNA:RNA)
RNA: B1 RNA with G25U, C26U, A27C, U28C, A29G, C30G
DNA 1: CAATCTGAATTCCGGTCTCCC
DNA 2: TGGTGGCTACGACGGGATT
B30: AGCAGGC (DNA:RNA)
RNA: GGGAGACCGGAAUUCAGAUUGUCCAGCAGGCUUAAAUCCCGUCGUAGCCACCA
DNA 1: CAATCTGAATTCCGGTCTCCC
DNA 2: TGGTGGCTACGACGGGATT
B31: AGCCGGA (DNA:RNA)
RNA: B30 RNA with A28C, C31A
DNA 1: CAATCTGAATTCCGGTCTCCC
DNA 2: TGGTGGCTACGACGGGATT

This test has as its target T1, RBFOX1 RRM RbFoxmut (Fox-RRM*). As to the kind of experiment: EMSA; HiTS-Eq, 1 nM pool, 10 min; buffer printed only for the single-RNA assays: 10 mM Tris pH 7.5, 150 mM NaCl, 3.4 mM EDTA, 0.001% NP-40, 30 C. The conditions noted are these: tags: His6 N-terminal (pET28a); label: 5' 32P. An outline of the steps: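 Purified wild-type or mutant RbFox RRM at increasing concentrations was equilibrated with 1 nM of 5′-radiolabelled RNA carrying 7 randomized nucleotides for 10 min in 50 µL. Unbound RNA was separated by 8% native PAGE and sequenced. Relative association constants came from read-count changes of each RNA species compared with the control reaction, normalised to the cognate motif.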
Regarding B1, the binding signal was 0.137 KA relative to UGCAUGU.

As for B2, the binding signal is 0.0876 KA relative to UGCAUGU.

Regarding B3, the binding signal was 0.115 KA relative to UGCAUGU.

For B4, the binding signal was 0.089 KA relative to UGCAUGU.

With B5, the binding signal is 0.0789 KA relative to UGCAUGU.

On to B6, for which the binding signal is 0.0823 KA relative to UGCAUGU.

In the case of B7, the binding signal was 0.0654 KA relative to UGCAUGU.

Take B8: the binding signal was 0.0945 KA relative to UGCAUGU.

In the case of B9, the binding signal was 0.0844 KA relative to UGCAUGU.

Turning to B10, the binding signal is 0.0893 KA relative to UGCAUGU.

In the case of B11, the binding signal is 0.103 KA relative to UGCAUGU.

As for B12, the binding signal is 0.117 KA relative to UGCAUGU.

Turning to B13, the binding signal was 0.0557 KA relative to UGCAUGU.

Take B14: the binding signal is 0.0952 KA relative to UGCAUGU.

Regarding B15, the binding signal is 0.162 KA relative to UGCAUGU.

As to B16, the binding signal is 0.145 KA relative to UGCAUGU.

Turning to B17, the binding signal was 0.0683 KA relative to UGCAUGU.

B18: the binding signal was 0.0693 KA relative to UGCAUGU.

Regarding B19, the binding signal is 0.11 KA relative to UGCAUGU.

Turning to B20, the binding signal is 0.088 KA relative to UGCAUGU.

B21: the binding signal is 0.0323 KA relative to UGCAUGU.

For the molecule B22, the binding signal was 0.0776 KA relative to UGCAUGU.

Turning to B23, the binding signal is 0.114 KA relative to UGCAUGU.

On to B24, for which the binding signal was 0.0771 KA relative to UGCAUGU.

Take B25: the binding signal is 0.0736 KA relative to UGCAUGU.

Take B26: the binding signal was 0.114 KA relative to UGCAUGU.

Regarding B27, the binding signal was 0.126 KA relative to UGCAUGU.

For B28, the binding signal is 0.0852 KA relative to UGCAUGU.

As to B29, the binding signal was 0.0707 KA relative to UGCAUGU.

Regarding B30, the binding signal is 0.0869 KA relative to UGCAUGU.

B31: the binding signal is 0.0626 KA relative to UGCAUGU.
